# Reference: PubChem BioAssay AID1508624 (National Center for Advancing Translational Sciences (NCATS), 2021)
# The whole screen tested about 48,000 compounds, of which about 120 (0.25%) were called active. Not shown: some 4% with an inconclusive outcome. Calls follow the shape of the dose curve; as a rule, active = well fitted activation curve with a large enough effect; inconclusive = small, poorly fitted or top-dose-only effect, or another doubt; inactive = no such curve, though single readings can be large or run the other way. The list shows a part of the results, in another mix than the full data. The source gives no active or inactive call for entries shown without one.
# Assay: Primary qHTS for Identification of Small Molecule Activators of Huntingtin-Antisense Promoter Activity; also: nearly all actives have a fitted effect of over 55% in size
# Details: HEK293 HTT-AS promoter firefly luciferase reporter, 24 h; activity change, positive = activation: at 57.5 µM (top of the series), percent change from vehicle, -100% = no light
# Summary of the method: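 Firefly luciferase readout (Dual-Glo, 10 min RT) after 24 h, 37 °C compound exposure (final up to 57.5 uM) of HEK293 reporter cells cultured 24 h beforehand; PTC124 at 50 uM final as control inhibitor; activity scaled vehicle 0%, zero RLU -100%.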
# Potency is read from the fitted curve at half-maximal effect.
Structure (SMILES),"activity change, positive = activation",Potency
CCOC(=O)N1CCC(NC(=O)c2cnn(-c3ccc(C)cc3)c2-n2cccc2)CC1,1.57%,
Cc1c(Cl)cccc1NC(=O)c1cc(-c2cccc(Cl)c2)on1,11.9%,
COC(=O)c1cc2oc3ccccc3c2n1CC(=O)Nc1cc(OC)cc(OC)c1,5.9%,
COc1ccc(C(=O)NCC(c2cccs2)S(=O)(=O)c2ccc(F)c(C)c2)cc1 (stereo not given),inactive: -20.5%,
Fc1cccc(Cl)c1CNc1n[nH]c(-c2ccco2)n1,,active: 5.01 µM
Cc1ccc(N2CCN(S(=O)(=O)c3ccc4oc(=O)c5ncn(C)c5c4c3)CC2)c(C)c1,-11.6%,
O=S(=O)(Nc1cccc(-c2ccc(N3CCCCCC3)nn2)c1)c1ccccc1,32.2%,
CCCCN1C(=O)CN(C2CCCCCC2)C(=O)C1c1ccc(OC(C)C)c(OC)c1 (stereo not given),14.1%,
Cc1ccc(-n2ccnc(NCCc3ccc(S(N)(=O)=O)cc3)c2=O)c(C)c1,inactive: -24.8%,
COc1cccc(CN2C(=O)N(c3ccc(C)cc3)C(=O)C2CC(=O)Nc2cc(OC)cc(OC)c2)c1 (stereo not given),-12.7%,
Cc1cccc(NC(=O)c2cc3c(=O)n(Cc4ccco4)ccc3nc2C)c1,-13.7%,
O=C1C(c2ccc(F)cc2)N(CCc2ccccc2)C(=O)CN1C1CCCCCC1 (stereo not given),19.8%,
COc1ccc(F)cc1S(=O)(=O)Nc1cccc(-c2ccc(N3CCC(C)CC3)nn2)c1,31.3%,
COc1cc(Cl)c(C)cc1NC(=O)CC(c1ccc(F)cc1)N1Cc2ccccc2C1=O (stereo not given),-5.5%,
CC(=O)c1cccc(NC(=O)CSc2nc3ccccc3nc2Cc2ccc(F)cc2)c1,2.74%,
COc1ccc(OC)c(S(=O)(=O)Nc2cccc(-c3ccc(N4CCCCC4)nn3)c2)c1,13.2%,
CC(C)(C)c1ccc(C(=O)NCC(c2ccc(Cl)cc2)N2CCOCC2)cc1 (stereo not given),inactive: -34.2%,
CCc1ccc(S(=O)(=O)Nc2cccc(-c3ccc(N4CCOCC4)nn3)c2)cc1,6.97%,
COc1ccc2c(c1)cc1c(=O)n(CC(=O)NC3CC3)nc(C)n12,-4.65%,
O=[N+]([O-])c1cc(-c2nc(-c3ccccc3)no2)ccc1NC1CCCCC1,inactive: -14.5%,

Structure (SMILES),"activity change, positive = activation",Potency
COc1ccc(C2c3cc(OC)c(OC)cc3CC(=O)N2c2ccc(C)c(F)c2)cc1 (stereo not given),-37.6%,
COc1ccc(C)cc1NS(=O)(=O)c1c(C(=O)N2CCC(C)CC2)c(C)n(C)c1C,inactive: -11.3%,
CCOc1c(Br)cc(C2CC(=O)Nc3cc4c(cc32)OCO4)cc1OC (stereo not given),inactive: -38.2%,
Cc1ccc(C)c(N2CCN(CCCNC(=O)c3cnn(-c4ccc(F)cc4)c3C3CCN(C(=O)OC(C)(C)C)CC3)CC2)c1,inactive: -1.56%,
CCOc1ccc(OCC)c(NC(=O)c2cc3ccccn3n2)c1,30.6%,
CN(C(=O)CSc1nnc(COc2ccccc2)o1)c1ccccc1,-14.9%,
COC[C@H](NC(=O)c1cnc(C)s1)C(=O)N[C@@H](COC)C(=O)N[C@@H](Cc1ccccc1)C(=O)[C@@]1(C)CO1,inactive: -63.5%,
COC(=O)c1ccccc1NC(=O)c1nc(-c2ccc(Cl)cc2)n2c1CCCCC2,8.84%,
CC(C)(C)C1CCc2onc(C(=O)Nc3sc4c(c3C#N)CCCC4)c2C1 (stereo not given),-1.79%,
Cc1cc(C)c(OCCOCCn2c(-c3ccc(Cl)cc3)nc3ccccc3c2=O)c(C)c1,40.3%,
Cc1ccc(C2CCN(C(=O)c3cnn(-c4ccc(C)c(C)c4)c3C3CCN(C(=O)OC(C)(C)C)CC3)C2)cc1 (stereo not given),inactive: -2.62%,
Cc1ccc(Cn2c(=O)c3cccnc3n(CC(=O)Nc3cc(Cl)ccc3C)c2=O)cc1,inactive: 12.6%,
Cc1cc(Cl)ccc1-n1c(CCC(=O)O)ccc1-c1cccs1,-5.12%,
CCc1c(C)c2ccc(O)c(CN3CCN(c4cc(Cl)ccc4C)CC3)c2oc1=O,-1.76%,
COc1cccc(CN2C(=O)CN(C3CCCCC3)C(=O)C2c2ccc(OC(C)C)c(OC)c2)c1 (stereo not given),-1.64%,
CC(C)N(Cc1ccccc1)C(=O)c1nc(-c2ccc(Cl)cc2)n2c1CCCCC2,-33.8%,
CCN1CCN(Cc2c(O)ccc3oc(C)c(C(=O)Nc4cccc(Cl)c4C)c23)CC1,-5.93%,
CCOC(=O)c1ccc(N2CCN(c3cc(C)ccc3C)CC2)c(NC(=O)Nc2ccc(Cl)cc2)c1,-9.15%,
COc1cc(OC)c(NS(=O)(=O)c2ccc3c(c2)CCCN3C(C)=O)cc1Cl,inactive: -22.9%,
COc1ccc(-c2nc(SCCOc3ccccc3Cl)n3[nH]c(=O)cc3n2)cc1,15.3%,

Structure (SMILES),"activity change, positive = activation",Potency
Cc1ccc(Nc2nc3ccccc3c3nncn23)c(Cl)c1,-1.22%,
O=C(CC1C(=O)N(c2ccccc2)C(=O)N1Cc1ccc(F)cc1)Nc1cccc(F)c1 (stereo not given),-17%,
CCOC(=O)c1cccc(NC(=O)c2cc3ccccn3n2)c1,-15.1%,
COC(=O)c1cc2oc3ccccc3c2n1CC(=O)Nc1ccc(Cl)cc1F,41.2%,
CCCN1CCN(CCCNC(=O)c2ccc3c(c2)sc2nc(-c4ccc(C)cc4)cn23)CC1,inactive: -1.44%,
CC1CCC(N2CC(=O)N(C3CCCC3)C(c3ccc(Cl)cc3)C2=O)CC1 (stereo not given),-8.84%,
CCN1CCN(Cc2c(O)ccc3oc(C)c(C(=O)Nc4ccc(OC)c(Cl)c4)c23)CC1,-1.86%,
Cc1cccc(N2CCN(S(=O)(=O)c3ccc4oc(=O)c5ncn(C)c5c4c3)CC2C)c1 (stereo not given),1.03%,
COc1ccc(N(C(=O)COc2c(C)cccc2C)S(=O)(=O)c2ccc(Cl)cc2)cc1,-33.4%,
Cc1c(NC(=O)c2cc(-c3cccc(Cl)c3)on2)c(=O)n(-c2ccccc2)n1C,3.95%,
CC(=O)OC(COc1ccccc1)Cn1cnc2cc(C)c(C)cc21 (stereo not given),-22%,
Cc1cc2oc(C(=O)Nc3sc4c(c3C(=O)NCC3CCCO3)CCC4)cc(=O)c2cc1C (stereo not given),inactive: -14.5%,
O=C(Nc1ccc(N2CCN(CCOc3ccc(Cl)cc3)CC2)c(C(=O)O)c1)c1ccc(F)cc1,inactive: -24.7%,
CCCOc1cccc(C(=O)Nc2ccc(-c3nc4ccccc4s3)c(Cl)c2)c1,inactive: 10.9%,
C=C(C)CSc1nc2sc3c(c2c(=O)n1CCCC)CCCC3,8.23%,
COc1ccc2c(c1)CCc1c(C(=O)Nc3ccccc3C(F)(F)F)noc1-2,21.9%,
CC(C)Oc1ccc(CNC(=O)Cn2c(=O)oc3ccccc32)cc1,-6.36%,
Cc1nn(Cc2ccc(Cl)cc2)c(C)c1NC(=O)c1noc2c1CCc1ccccc1-2,-39%,
c1ccc(-c2nnc(CN3CCN(c4ccccc4)CC3)o2)cc1,-9.15%,
COc1cccc(-c2cc(C(=O)Nc3ccn(Cc4ccc(C)cc4)n3)no2)c1,1.03%,
